The other results are listed elsewhere or left out.

The experiment relates to PfAP2-HC AP2 domain (GST-tagged). Put plainly: gcPBM binding intensity (ln(normalized median fluorescence intensity)); higher = stronger DNA binding. In short, it runs like this:
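GST-fused DNA-binding domains of P. falciparum, expressed in E. coli, were applied at about 25 μg on average for 1 h to an Agilent 4 × 180k array of primer-extended double-stranded 36-bp intergenic genomic probes and negative controls. Binding intensity is the highest Masliner-normalised natural-log median intensity across replicate spots of either probe orientation, measured with Alexa488 anti-GST antibody and a 488 nm scan.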
In the case of “TGTATATATTATAAAAGTACATAATATTCTTAGATA [XGTACX_site5623]”, the “gcPBM binding intensity (ln)” value was determined as 9.51.
With “TTATCTTACATAAATTATAACAATAATATGTGTATA [XGTACX_negctrl_site379]”, the “gcPBM binding intensity (ln)” value amounted to 9.58.
As to “CATTTCGAAAAAAAATGTACTTATTATATTTATATA [XGTACX_site6752]”, the “gcPBM binding intensity (ln)” value came to 9.48.
For “TTTTGTCTTATATGTTGTACAACGTAAACAAAAAAA [XGTACX_site4412]”, the “gcPBM binding intensity (ln)” value was 9.32.
“AAAAGAATATATAATTGTACTTAAAATATAATTAAG [XGTACX_site4484]”: the “gcPBM binding intensity (ln)” value was determined as 9.64.
The value for “TTTCGATTAAAAATTGTACAATATAAGGAGCACACA [GTGCAC_negctrl_site476]” was 9.64; that for “AACCACAGACATATAACACACATATACAATATATAT [CACACA_site5142]” was 10.4.
On to CTTTTTTTGACCTTAGTGCAAATAACTATATATTAT, for which the “gcPBM binding intensity (ln)” value was found to be 9.71.
The result for “TAAAAAAAAAAATGAACATGCAACAATTGTGATGAA [TGCATGCA_site332]” reads 9.84; that for “ACTGTAACAATCATGGGTACAAATAAAATAATATCT [XGTACX_site99]”, 9.7; that for “ATGAAAATTATAAAGTGTACATATAGAAACATTTAC [XGTACX_site8047]”, 9.75.
The value for “ATGGGACATATATATACACACATATATATATATATA [CACACA_site1202]” was 9.73; that for “AAAAAAATTAAACATGAAGAATAAGGAACAAAAAAA [CACACA_negctrl_site1607]” was 9.87; that for “TTTAATCATATGTTATATAATAAGCCCCCCCCCCAA [CACACA_negctrl_site486]” was 10.3.
Turning to “ATTTAAGTAGTACATACACACACATATACAAAAAGA [CACACA_site9317]”, the “gcPBM binding intensity (ln)” value worked out at 10.2.
The result for “ATTAATTAAGGCACATGTACAAAATATTTTTTATAA [XGTACX_site1964]” reads 9.68.
In the case of “TATACAATCTATATAACACACATATTTATATAAAAT [CACACA_site1797]”, the “gcPBM binding intensity (ln)” value worked out at 9.73.
In the case of “AATATAGTTCAATATACACACCCCTTTATTCATTTT [CACACA_site3625]”, the “gcPBM binding intensity (ln)” value stood at 9.89.
The result for “GTAACATACACATATACACACACACCGATATACATA [CACACA_site8278]” reads 10.6; that for “CAATATAAAAAACACACACACAAACATATATTTATA [CACACA_site3703]”, 10.5.
Take “TGTCGGCTTAGATTAGTGCACTGAAAAATGAAGTAT [GTGCAC_site9919]”: the “gcPBM binding intensity (ln)” value amounted to 9.61.
Regarding “TATTTATATAAAAATACACACATGAATGGATATATA [CACACA_site6335]”, the “gcPBM binding intensity (ln)” value worked out at 9.77.
The result for “ACAAAACGAACATACGCATGTGTGTACATTAATATA [TGCATGCA_site922]” reads 10.1; that for “TTATTTACATCAAGTACATGCAGTAAAAAAAAAAAA [TGCATGCA_site351]”, 9.6.
Regarding “CACCAATTCCTATGCACACACATCTGCATATTATAT [CACACA_site5049]”, the “gcPBM binding intensity (ln)” value was 10.8.
As for “ATATAATATATGTATACACACATATTATATAATATT [CACACA_site3699]”, the “gcPBM binding intensity (ln)” value is 9.85.
Turning to “ATGAACAGTTCATGTTGTACAATCTCCATTTTTTAC [XGTACX_site3933]”, the “gcPBM binding intensity (ln)” value was determined as 9.68.
With “TATACACATTTTTATACACACTTGTTTTATAAAACG [CACACA_site6480]”, the “gcPBM binding intensity (ln)” value amounted to 9.76.
“ATAATATGAAATATAACACACATATATAAAAACATT [CACACA_site866]”: the “gcPBM binding intensity (ln)” value amounted to 10.
Regarding “TATTTTTTTTTTGGGTGTACCTTTTATATATATTGT [XGTACX_site5036]”, the “gcPBM binding intensity (ln)” value was determined as 9.65.
The value for “TATATATATATATATGCATGTACATATATTTGTTAT [TGCATGCA_site379]” was 10.4; that for “TTTTTTTTTTTTTTTTGTACTTAAAAATTTATATAA [XGTACX_site7718]” was 9.08.
As for “ATTTAACTAAAGAAGGCACACGTGTTTAAAAAAAAA [CACACA_site5241]”, the “gcPBM binding intensity (ln)” value was 9.68.
Turning to “CATTTATATATATACACACACACAAAAAAAAAAAAA [CACACA_site2645]”, the “gcPBM binding intensity (ln)” value is 10.7.
Turning to “GACGTTATGATACACATACACACAGGGATAAAAAAT [CACACA_site2882]”, the “gcPBM binding intensity (ln)” value turned out to be 9.89.
Take “AATATTATATTTTATTGTACTAATAAAAATATATGC [XGTACX_site5435]”: the “gcPBM binding intensity (ln)” value came out at 9.43.
Take “TAATGTATATGTAAATGTACATGTATATTATTTAAA [XGTACX_site1840]”: the “gcPBM binding intensity (ln)” value was 9.57.
“ATCAAAGATAAATTTACACACATATATATATATATA [CACACA_site2969]”: the “gcPBM binding intensity (ln)” value came to 9.81.
For “AAGATATTTGTATAATGTACAAAACTATATAAAACT [XGTACX_site1433]”, the “gcPBM binding intensity (ln)” value is 9.7.
The value for “TCTTCCCAAATAAAGTGTACATAAATACGAATAATA [XGTACX_site4363]” was 9.44; that for “AAAATTAAAATATATACACACATATATATATTAAAT [CACACA_site4419]” was 9.82.
On to “AAATATACAAAATATACACACATATTTATTTATGAT [CACACA_site2051]”, for which the “gcPBM binding intensity (ln)” value was 9.84.
The result for “TATTTTCATTTGCGCGCACACAATAATAATTTTTGG [CACACA_site3525]” reads 10.1; that for “AACAATTATTTATCTACACACTTTTATGTTATTTAC [CACACA_site9]”, 9.91.
